The other results are listed elsewhere or left out. Single values of this set are uncertain. Values with irradiation are relative to irradiated vehicle.
What was measured:
A549-Dual [1] = experiment: NF-kB reporter (SEAP) activity, viability-corrected, relative to vehicle (fold change vs vehicle); higher = more activation of STING-IRF / NF-kB immune response reporter; conditions: 10 µM
A549-Dual [2] = experiment: ISRE reporter (Lucia luciferase) activity, viability-corrected, relative to vehicle (fold change vs vehicle); higher = more activation of STING-IRF / NF-kB immune response reporter; conditions: 10 µM
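Throughout, for NF-kB reporter (SEAP) activity, viability-corrected, relative to vehicle: viability correction based on the alamar blue assay, with concentrations leaving 10% survival or less dropped.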

| Structure (SMILES) | NF-kB reporter (A549-Dual [1]; irradiation: 8 Gy/4 fr) | NF-kB reporter (A549-Dual [1]; irradiation: none) | ISRE reporter (A549-Dual [2]; irradiation: 8 Gy/4 fr) | ISRE reporter (A549-Dual [2]; irradiation: none) |
| --- | --- | --- | --- | --- |
| CC1=NN(c2ccc(C)c(C)c2)C(=O)/C1=N\Nc1cccc(-c2cccc(C(=O)O)c2)c1O [Eltrombopag] | 1.69 | 1.53 | 0.213 | 0.469 |
| C[N+](C)(C)CCO.O=C([O-])C(O)C(O)C(=O)O (stereo not given) [Choline bitartrate] | 1.03 | 0.644 | 1.12 | 0.659 |
| CC(C)(C)NC(=O)C1CCC2C3CCC4NC(=O)C=CC4(C)C3CCC12C (stereo not given) [Finasteride] | 0.8 | 0.841 | 0.816 | 0.72 |
| C=C1/C(=C\C=C2/CCCC3(C)C2CCC3C(C)/C=C/C(O)C2CC2)CC(O)CC1O (stereo not given) [Calcipotriene] | 0.604 | 0.998 | 0.461 | 1.16 |
| CCn1nc(C(=O)O)c(=O)c2cc3c(cc21)OCO3 [Cinoxacin] | 0.924 | 0.962 | 0.744 | 0.547 |
| COS(=O)(=O)[O-].C[N+]1(C)CCC(=C(c2ccccc2)c2ccccc2)CC1 [Diphemanil Methylsulfate] | 0.777 | 0.854 | 0.935 | 1.08 |
| O=C(O)c1ccc(C(=O)O)cc1 [Terephthalic acid] | 0.751 | 0.772 | 0.82 | 0.637 |
| O=c1n(CCCN2CCN(c3cccc(Cl)c3)CC2)nc2ccccn12 [Trazodone] | 0.922 | 0.894 | 0.958 | 0.844 |
| CCOC(=O)C(CCc1ccccc1)NC(C)C(=O)N1C(C(=O)O)CC2CCCC21 (stereo not given) [Ramipril] | 0.884 | 1.06 | 0.972 | 1.04 |
| O=P([O-])(O)C(O)(Cc1cccnc1)P(=O)(O)O.[Na+] [Risedronate Sodium] | 0.935 | 0.981 | 0.879 | 0.847 |

From the supplement of paper PMC9174493
